Test results: the RNAGym collection of RNA variant scans (doi:10.1073/pnas.2313332121)
Variants at the floor of the assay are shown more often than the library holds them.

B1: TPR 5TU (parent)
chain: GGAUCUUCUCGAUCUAACAAAAAAGACAAAUCUGCCACAAAGCUUGAGAGCAUCUUCGGAUGCAGAGGCGGCAGCCUUCGGUGGCGCGAUAGCGCCAACGUUCUCAACUAUGACACGCAAAACGCGUGCUCCGUUGAAUGGAGUUUAUCAUG

Variants of: B1
Assay: polymerase ribozyme fitness, log enrichment relative to wild type (log ratio); higher = more active; in vitro selection for triplet polymerase activity
In short: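 A single round of triplicate in vitro selection, including frozen incubation at −7 °C, was applied to PCR-built, transcribed mutant libraries of each subunit of a heterodimeric triplet polymerase ribozyme. Illumina sequencing of input and output libraries retained genotypes with ≥10 input reads and ≥1 read per output. Fitness is the base-2 logarithm of genotype enrichment divided by wild-type enrichment, from inverse-variance-weighted replicate averages.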

Polymerase ribozyme fitness (log ratio), ≤ -4.2:
GGAUCUUCUCGAUCUAACAAAAAAGACAAUUCUGCCACAAAGCUUGAGAGCAUCUUCGGAUGCAGAGGCGGCAGCCUUCGGUGGAGCGAUAGCGCCAACGUUCUCGACUAUGACACGCAAAACGCGUGCGCAGUUGAAUGGAGUGUACCAUG
GGAUCUUCUCGAUCUAACAAAAAAGACAAGUCAGUCACAAAGCUUGAGAGCAUGUUCGGAUGCAGAGGCGGCAGCCUUCGGUGGAGCGAUAGCGCCAACGUUCUCAACUAUGACACGCAAAACGCGUUCUCCGUUGAAUGGAGUUUAUCAUG
GGAUCUUCUCGAUCUAACAAAAAAGACAAUUCUGCCACAAAGCUUGAGAGCAUCUUCGGAUGCAGAGGAGGCAGCCUUCGGUGGCGCGAUAGCGCCAACGUUCUCAACUAUGACACGCAAAACGCGUGCUCCGUUGAAUGGAGUUUAUCAUG
GGAUCUUCUCGAUCUAACAAAAAAGACAAGUCUGCCACAAAGCUUGAGAGCAUCUUCGGAUGCAGAGGCGGCAGCCUUCGGUGGCGCGAUAGCGCCAACGUUCUCAACUAUGACACGCAAAACGCGUGCUCCGUUGAAAGGAGUUUAUCAUG
GGAUCUUCUCGAUCUAACAAAAAAGACAAUUCUGCCACAAAGCUUGAGAGCAUCUUCGGAUGCAGAGGCGGCAGCCUUCGGUGGCGCGUUAGUGCCAACGUUCUCAACUAUGACACGCAAACCGCGUGCUCCGUUGAAUGGAGUUUAUCAUG
GGAUCUUCUCGAUCUAACAAAAAAGACAAGUCUGCCACAAAGCUUGAGAUCAUCUUCGGAUGCAGAGGCGGCAGCCUUCGGUGGCGCGAUAGCGCCAACGUUCUCAACUAUGACACGCAAAACGCGUGCUCCGUUGAAUCGAGUUUAUCAUG
GGAUCUUCUCGAUCUAACAAAAAAGACAAUUCUGCCACAAAGCUUGAGAGCAUCUUCGGAUGGAGAGGCGGCAGCCUUCGGUGGCGCGAUAGCGCCAACGUUCUCAACUAUGACACACAACACGCGUGCUCGGUUGAAUGGAGUUUAUGAUG
GGAUCUUCUCGAUCUAACAAAAAAGACAAUUCUGCCACAAAGCUUGAGAGCAUCUUCGGAUGCAGAGGCGGCAGGCUUCGGUGGAGCGAUAGCGCCAACGUUCUCAACUAUGACACGCAGAACGCGUGCUCCGUUGAAUGGAGUCUAUCAUG
GGAUCUUCUCGAUCUAACAAAAAAGACAAUUUUGCCACAAAGCUUGAGAGCAUCUUCGGAUGCAGAGAUUGCAGCCUUCGGUGGGGCGAUAGCGCCAACGUUCUCAACUAUGACACGCAAAACGCGUGCUCCGGUGAAUGGAGUUUAUCAUG
GGAUCUUCUCGAUCUAACAAAAAAGACAAGUCUGCCACAAAGCUUGAGAGCAUCUUCGGAUGCAGAGGCGGCAGCCUUCGGUGGCGCCAUGGAGCCAACGUUCUCAACUAUGACACGCAAAAAGCGUGCUCCGUUGAAUCGAGUUUAUCAUG
GGAUCUUCUCGAUCUAACAAAAAAGACAAUUCUGCCACAAAGCUUGAGAGCAUUUUCCGAUGCAGAGGCGCCAGCCUUCGGUGGCGCGAUAGCGCCAACGUUCUCAACUAUGCCAAGCAGAACGCGUGCUCCGUUGAAUGGAGUUUAUCAUG
GGAUCUUCUCGAUCUAACAAAAAAGACAAUUCUGCCACAAAGCUUGAGAGCAUCUUCGGAUGCAGUGGCGGCAGACUUCGGUGGCGGGAUGGCGCCAACGUUCUCAACUAUGACACGCAAAACGCGUGCUCCCUUAAAUGGAGUUUAUCAUG
GGAUCUUCUCGAUCUAACAAAAAAGACAAUUCUGCCACAAAGCUUGAGAGCAUCUUCGGUUGCAGAGGCGGCAGCCUUCGGUGGCGCUAUAGCGCCAACGUUCUCAACUAUGACACGCAAAACGCGUGCUCCGUUGAAUGGAGUUUAUCAUG
GGAUCUUCUCGAUCUAACAAAAAAGACAAUUCUGCCACAAUGCUUGAGAGCAUCUUCGGAAGCAGAGGCGCCAGCCUUCGGUGGCGCGAUAGCGCCAACGUUCUCAACUAUGACACGCAACCCUCGUGCUCCGUUCAAUGGAGUUUAUCAUG
GGAUCUUCUCGAUCUAACAAAAAAGACAAUUCUGCCACAUAGCUUGAGAGCAUCUUCGCAGGCAGAGGCGGCAGCCUUCGGUGGCGCGAUAGCGCCAACGUUCUCAACUAUGACACGCAAAACCCGUGCUCCGUUGAAUGGAGUUUAUCAUG
GGAUCUUCUCGAUCUAACAAAAAAGACAAUUCUGCCCCAAAGCUUGAGAGCAUCUUCGGAUGCAGAGGCGGCAGCCUUCGGUGCCGCGAUAGCGCCUACGUUCUCAACUAUGACACCCAAAACGCGUGCUCCGUUGAAUGGAGUUUUUCAUG
GGAUCUUCUCGAUCUAACAAAAAAGACAAUUCUGCCACAAAGCUUGAGAGCGUCUUCGGAUGCAGAGGCGGCAGCCUUCGGUGGCGCGAUGGCGUCAACGUGGUUAACUAUGACACGCAAAACGCGUGCUCCGUUGAAUGGAGUGUAUCAUG
GGAUCUUCUCGAUCUAACAAAAAAGACAAUUCUGCCACAAAGCUUGCGAGCAUCUACGGAUGCAGAGGCGGCAGCGUUCGGUGGCGCGAUAGCGCCAACGUUCUCUACAAUGACACGCAAAACGCGUGCUCCGUUGAAUGGCGUUUAUCAUG
GGAUCUUCUCGAUCUAACAAAAAAGACAAGUCUGCCACAAAGCUUGAGAGCAUCUACGGAUGCAGAGGCGGCAGCCUUCGGUAGCGCGAUAGCGCGAACGUUCUCAACUGUGACACGCAAAACGCGUGCUCCGUUGAAUGGAGUUUAUCAUG
GGAUCUUCUCGAUCUAACAAAAAAGACAAUUCUGCCACAAAGCUUGAGAGCAUCUUCGGAUGCAGAGGCGGCAGCCUUCGGUGGCGCGAUAGUGCCAACGUUCUCAACUAUGACGCGCAAAACGCGUGCUCCGUUGAAUGGAGUUUAUCAUG
GGAUCUUCUCGAUCUAACAAAAAAGACAAUUCUGCCACAACGCUUGAGAGCAUAUUCGGAUGCAGAGGCGGCAGCCUUCGGUGGCGCGAUAGCGCCAACGUUCUCAACUAUGACACGCAAAACUCGUGCUCCGUUGAAUGGAGUUUAUCAUG
GGAUCUUCUCGAUCUAACAAAAAAGACAAGUCUGCCACAAAGCUUGAGAGCAUCUUCGGAUGCAGAGGCGGCAGCCUUCGGUGGCGCCAUAGCGCCAACGUUCUCACCUAUGACACGCAAAAUGCGUGCUCCGUUGAAUGGAGUUUAUCAUG
GGAUCUUCUCGAUCUAACAAAAAAGACAAGGCUGCCACAAAGCUUGAGAGCAUCUUCGGAUGCAGAGGCGGCAGCGUUCGGUGGCGCGAUAGCACCAACGUUCUCAGCUAUGACACGCAAAACGCGUGCUCCGUUAAAUGGAGUUUAUCAUG
GGAUCUUCUCGAUCUAACAAAAAAGACAAUUCUGCCACAAAGCUUGAGAGCAUCUUCGGAUGUAGAGACGGCAGCCUUCGGUGGCGAGAUAGCGCCAACGUUCUCAACUAUGACACGCAAAACGCGUACUCCGUUGAAUGGAGUUUCUCAUG
GGAUCUUCUCGAUCUAACAAAAAAGACAAUUCUGCCACAACGCUUGGGAGCAUCUUCGGAUGCAGAGGCGGCAACCUUCGGUGGUGCGAUAGCGCCAACGUUCUCCACUAUGACACGCAAAACGCGUGCUCCGUUGAAUGGAGUUUUUCAAG
GGAUCUUCUCGAUCUAACAAAAAAGACAAUUCUGACACAAAGCUUGAGAGCAUCUUCGGAUGCAGAGGCGGCAGCCUUCGGUGGCGAGAUAGCGCCAACGAUCUCAACUAUGACACGCAAAACGCGUGCUCCGUUGAAUGGAGUUUAUCAUG
GGAUCUUCUCGAUCUAACAAAAAAGACAAUUGUGCCACAAAGCUUGAGAGCAUCAUCGGAUGCAGAGGCGGAAGCCUUCGGUGGCGCGAUAGCGCCAACGUUCUCAACUAUGACACGCAAAACGCCUGCUCCGUUGAAUGGAGUUUAUCAUG
GGAUCUUCUCGAUCUAACAAAAAAGACAAUUCUGCCACAUAGCUUGAGAGCAUCUUCGGAUGCAGAGGCGGCAGACUUCGGUUGCGCGAUAGCGCCAACGUUCUCAACUAUGACACGCAAAACGCGUGCUGCGCUGAAUGGAGUUUAUCAUG
GGAUCUUCUCGAUCUAACAAAAAAGACAAUUCUGCCACAAAGCUUGAGAGACUCUUUGGAUGCAGAGGCGGUAGCCUUCGGUGGCUCGAUAUCUCCAACGUUCUCAACUAUGACAGGCAAAACGCGUGCUCCGUUGAAUGGAGUUUAUCAGG
GGAUCUUCUCGAUCUAACAAAAAAGACAAUUGUGCCACAAAGCUUGAGAGCAUCUUCGGAUGCAGCGGCGGCAGCCUUCGGUGGCGCGAUAGCGGCAACGUUCUCAACUAUGACACGCAAAACUCGUGCUCCGUUGAAUGGAGUUUAUCAUG
GGAUCUUCUCGAUCUAACAAAAAAGACAAGUCUGCCACAAAGCUGCAGAGCAUCUUCGGAUGCAGAUGCGGCAGCCUUCGGUGGCGCGAGAGCGCCAACGUUCUCAACUAUGACACGCAAAACGCGUGCUCCGUGGAAUGGAGUUUAUCAUG
GGAUCUUCUCGAUCUAACAAAAAAGACAAUUCUGCCACAAAGCUUGAGAGCCUCUUCGGAUGCAGAGGCGGUAGCCUUCGGUGGCGCGUUAGCGCCUACGUUCUCAACUAUGACACGCAAAACGCGUGCUCGGUUGAAUGGAGUUUUUCAUG
GGAUCUUCUCGAUCUAACAAAAAAGACAAUUCUGCCACGAAGCUUGAGAGCAACUUCGGAUGCAGAGGCGGCAGCCUUCGGUGGCGCGAUAGCGGCAACGUUCUCAACUAUGACACGCAAAACGCGUGCUCCGUUGAAUGGAGUUUAUCAUG
GGAUCUUCUCGAUCUAACAAAAAAGACAAGUCUGCCACAAAGCUACACAGCAUUUUCGGAUGCAGAGGCGGCAGCCUUCGGUGGCGCGAUAGAGCCAACGUUCUGAACUAUGACACGCAAAACACGUGCUCCGGUGAAUGGAGUUUAUCAUG
GGAUCUUCUCGAUCUAACAAAAAAGACAAGUCUGCCACAAAGCUUGAGAGCAUCUUCGGAUGCAGAGGCGGCAGCCUUCGGUGGCGCGAUAGCGCCAACGUUCUCAACUAUGACACGCAAAACGCGUGCUCAGUUGAAUGGAGUUUAUCAUG
GGAUCUUCUCGAUCUAACAAAAAAGACAAUUCUGCCACAAAGCUUGAGAGCAUCUUCGGCUGCAGAGGCGACAGCCUUCGGUUGCGCGAUAGUGCCAACGUUCUCAACUAUGACUCGCAAAACGCGUGCUCCGUUGAAUGGAGUUUAUCAUG
GGAUCUUCUCGAUCUAACAAAAAAGACAAUUCUGCCACAAAGCUUGAGAGCAUUUUCGGAUGCAGAGGCGGCAGCCAACGGUGGCGCGAUAGUGCCAACGUUCUCAACUAUGACACGCAAAACGCGUGCUCCGUUAAAUGGAGUUUAUCAUG
GGAUCUUCUCGAUCUAACAAAAAAGACAAUUCUGCCACAAAGCUUGAGAGCAUAUUCGGAUGCAGAGGCGGCAGCCUUCGGUGGCGCGAUAACGCCAACGUUCUCAACUAUGACACGCAAAACGCGUGCUCCGUAGAAUGGAGUUUAUCAUG
